From the supplement of paper PMC10126150
Values marked as one replicate rest on one cluster of the flow cell; about a third of the high ones do not repeat.

Test system: ATP
Assay: switch fluorescence ratio, 500 uM ATP over buffer (Cy3 cluster intensity, sum of 5 cycles each) (fold (ratio)); higher = stronger signal-on switching upon ATP binding; sequences stand for … in TCGTCGGCAGCGTCAGATGTGTATAAGAGACAGTTTTTTTTTTTTTTTTTTTTTTTTT…TC
Details: aptamer strand: ATP DNA aptamer (quencher-CACCTGGGGGAGTATTGCGGAGGAAGG + anchor), 100 nM annealed; ATP concentration: 500 uM; one replicate
Method in brief: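 Per cluster, summed Cy3 intensity from the target cycles was divided by that from the buffer cycles to give the fluorescence ratio, then averaged per switch-domain sequence. Clusters outside 100-1000 RFU were excluded. The Cy3-labelled switching-strand clusters, on a modified Illumina MiSeq flow-cell, were annealed to 100 nM quencher-labelled ATP aptamer and imaged in selection buffer, then after 15 min with 500 uM ATP at 22 °C, for five cycles with NaOH stripping and re-annealing between them.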
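Note: ATP exposure 15 min at 22 °C before imaging.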

Sequence	switch fluorescence ratio
GAGGAGGCTG	0.948
ATAGTCAGTT	0.988
AAAACCAGTT	1.03
GGGTAAAGCA	0.984
ATTCGGGCCT	0.966
AACTGTTCAT	1.04
TGAACCCTGG	1.03
TAAAGAGGAA	0.998
TAGCAAGTTA	1.04
ACCATTCAAC	1.03
TTGGCTAT	1.01
TGAAGGCCCG	1.04
TCGAGATTGT	0.99
ATGGGCCCTC	1.02
CACATTCTGA	0.998
CATTGCTAGA	0.957
ATTCTTGATT	0.991
GTTTTACGGC	0.994
AGAAGGGGAA	1
ACTAAAGAAG	1.03
GAAGGCACTG	0.961
CATCCATTTG	1.04
CAGAGTAGCG	0.942
ACCTGAGTTG	1.06
GAAGGTTGGG	0.992
CGGGGGGCT	0.992

Sequence	switch fluorescence ratio
TTTCGCAGTT	2.77
GAAGGTTTGC	1.02
TGACTCACTA	1.19
CTTAGTCCTG	0.938
AATGTAGTCC	1
CGCAGATTTT	1
ATGTCGCGTA	0.962
ACCCGGTTCT	1.02
TGTGACTAAA	0.985
AGGTTTGTTC	0.952
AAGGCTCGAG	1.01
TTTTGCAGCG	0.973
TCATCGGTT	1.02
AGTAAGAAAG	1.01
CGATTGTACA	1.01
TATTAGAAGA	0.957
AATATGCATC	1.01
CTTGTATCAT	0.996
TCAAATGGAA	1.02
GGGTAAGCAT	1.04
GAGGCTTCAG	0.991
GTTACGTCCC	1.06
AGTCCCATTT	1.02
ACTAGAGATA	1.02
TCATGGGAAT	1.08
TCCGGCGTG	1.02

Sequence	switch fluorescence ratio
TCCGGTGTAT	1.14
TGAAGTAGAT	0.961
GCGTTTCGCT	0.993
GAAGACGGTT	1.04
GGATTGGACA	1.02
GAGCAAGTTA	1.07
AGCGGGTGTG	1.04
TTACAGATTG	1.03
GCCGAATAGT	0.998
GTGGTTCGTA	1.05
TCCAAGGAGC	1.05
ATTCTCCTAG	1.03
ATTTGCATA	1
GGCAATAATG	1.07
GTGAAGGGAG	0.965
CCCCTGCCGG	1.01
TCACAAGACG	1.01
TGCCCGGTGT	1.46
AAGGCTCAC	1.05
CCTCTGCTTC	2.44
ATTGTGGACT	1.02
CAAGTGGCCA	1
TTTTCCGTCT	1.07
TCTAGCCCAA	1.02
CGTTTTTTGG	0.973
CCAGGGATTG	1.09

Sequence	switch fluorescence ratio
AGCTGGCCAG	1.02
ATATACCGAG	1.11
CGAGCATCAC	3.12
ACTAGGGGCC	1.05
AGGGCTCACT	0.961
GCATATGGTG	1
AGCTTATACC	1.38
GGGCGATTTG	1.02
ACTTGAGGCG	1.04
TAGTCCCTAT	1
TTCAACTGCT	1.02
GTCCGCATTT	5.07
TTACAGCGAC	1.18
CACTGCATAT	1.94
TAAGTTTTGT	1.02
GTGAAGGGT	0.989
CGCTGTCTGG	1
GTTTTGAAGG	0.959
CTTTGACTTC	0.985
GAGGTTATCT	1.04
AAGTTGCTCT	0.968
CAGCCAATCA	1.01
ATATTAACCC	1.07
AATTTTGCGC	0.976
AGGTATTCTT	1.01
AGGGGCTCCC	1.01

Sequence	switch fluorescence ratio
CCGTCTACGA	1.23
TGACGAAA	1.13
CACTACTGCG	1.05
TAGCATGTTT	0.988
AGCTGCTGGT	1.01
CTGTCAAATC	1.12
TATTTGGCG	0.928
CGGAACTGAG	1.03
GTGATACGCT	1.07
GAAGGTAGAC	1.12
GTCCGACACG	1.1
AATGTTGCCT	1.03
GATGCATTGT	1.05
AGTCTTAGT	1
TCAATGCGGG	1.01
AATTTAAACA	1
CTACACAAGG	1.15
CCTGGTCCAT	0.938
CAGATCACTG	1.06
TTAGCCAATT	1.06
ACCCTGAGTC	1.17
TTGAATGTG	0.964
AATATGAGAA	0.992
GAAGCAGAGT	1.11
TGTTACGGGA	1.04
ACCGTCTTCG	1

Sequence	switch fluorescence ratio
AGCCAACAGG	1.12
TTCTTTACTA	1.31
TCGATTGGA	0.98
TTTCGAGTCC	1.07
TTCACAGGA	0.997
GATCGGTCCA	0.964
TTTAGGGGTG	1.02
TCTCAGTGAC	1.09
ACTATAAT	1.08
AATATCAGT	1.02
GGTTTAATGA	0.95
CTTTGTACTG	1.05
GGTGTATGGC	1.01
TTAAAGAGAC	1.01
GAAGGAGAGA	1.18
AAGTAGCACT	0.957
AAGCATAGCA	1.04
AATCGTAACT	1.02
CTTCTTAGTA	0.993
ATTTGATCTC	0.998
ATCTGGGAGA	0.951
GGAACTGGAC	1.09
AGGATTTGTG	1.01
TGAAAGTTCC	1.06
TATAGTTGCT	0.965
GGCTTCGCGG	1.02

Sequence	switch fluorescence ratio
TGGGGAAGTA	0.981
TGAGTAAGCC	1.02
TCACGGATC	1.05
GGTTTAAAAG	0.974
CTTCGCGGGG	1
TCGGCCTCCA	1.31
GGAGCTCGT	0.992
TGCAGGCGAG	1.03
CAACTCGTCG	0.974
TGGGGCGATG	0.943
GTTATAATAA	0.979
ACATGCAGCA	1.02
CATATCCGGG	0.983
TTGCAACATG	0.994
TTTGCTGGCT	1.01
AAACCTTGTA	1
GGGGGAGGC	1.03
AGGTGGCTGG	1.01
TTTATAAACG	0.966
AATTTGCATC	0.967
CGCGGAATCC	1.39
ACTGTATAG	1.02
GGGTTATTCG	1
AAGACCAGGT	1.13
GCCCCGCTGA	1.54
TGTGCAAAAA	0.989

Sequence	switch fluorescence ratio
AAAGCATAAA	0.955
CGTGAACTAA	0.992
AAAGGGCAAC	0.993
GACAGAGTGG	0.944
TGGGCAGTGT	1.04
TAGGATCATT	0.952
CGAGTGAACA	1.03
TAAAGAATAT	1
GGATCGGGGA	1.04
TCCCCCTTCT	1.94
AGAGATTCC	1.02
TCCCCACGTT	1.07
GTTAACGTAC	1.82
CTGGTGCAGA	1.07
AAATGCCGTC	0.975
AAGTTCAGGA	0.999
TATCAGTCGA	1.02
TGGGCGGGCC	1.01
CCATGGTGGT	1.01
